Data as given in the supplement of paper PMC11417369.
The list shows a part of the results.

Test system: PfHDP1 homeodomain (GST-tagged)
Test: gcPBM binding intensity (ln(normalized median fluorescence intensity)); higher = stronger DNA binding
How it was run: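 For binding intensity, the highest Masliner-normalised natural-log median intensity across replicate spots of either probe orientation was taken. Protein bound to the array was stained with Alexa488 anti-GST antibody and scanned at 488 nm. The protein, GST-tagged P. falciparum DNA-binding domains from E. coli at about 25 μg on average, had been applied for 1 h to an Agilent 4 × 180k array of primer-extended double-stranded 36-bp intergenic genomic probes and negative controls.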

Going from “ATATGTACAAGTGTTTATGCTGAACGGAAATCCTGT [CACACA_negctrl_site1372]” to “TACCTATATAGACACACACACATATATTTATTTATA [CACACA_site6728]”, the “gcPBM binding intensity (ln)” value rises from 6.18 to 6.94.

Compared with “AAAAAAAAAAAAATATATATATATATATATATATAT [GTGCAC_negctrl_site212]”, “AAATGTAAATTTATCCGTACATATATATATTTATAT [XGTACX_site7024]” is lower in “gcPBM binding intensity (ln)” value: 9.5 for the first, 6.36 for the second.

Compared with “AAAAAAAAAAATTAAAGTACAAAAATATTAAAAATA [XGTACX_site6517]”, “TCTTTTTAAGGGATTTTTTTTTTTTTTTTAAAAAGA [CACACA_negctrl_site1274]” is lower in “gcPBM binding intensity (ln)” value: 6.2 for the first, 5.72 for the second.

Compared with “TTTGTATCTATATATTGTACGAATTACTTTCATTTA [XGTACX_site4785]”, “AATACAATTTATAACACACACACAAGAATACCTATA [CACACA_site6705]” is higher in “gcPBM binding intensity (ln)” value: 6.46 for the first, 6.94 for the second.

First: TTTTTTGTATTTTTCACACACACATAAGTAAACAAT [CACACA_site1900]
Second: TATTATGTATGTATATGTACGTATCTTATTTTATTT [XGTACX_site5008]
The “gcPBM binding intensity (ln)” value of the first is higher: 6.87 for the first, 6.24 for the second.

Going from “TATACATACATTAGACGTACACATTTTACCTACACC [XGTACX_site3586]” to “AAATTATTATATATATGTACGTATAATGTATTTTGT [XGTACX_site2903]”, the “gcPBM binding intensity (ln)” value falls from 6.92 to 6.37.

Compared with “TTTTTTTTTTTTTCAAGTACATATATATATATATAA [XGTACX_site2098]”, “TTTTTATATGTTAAGTGTACGTTTACATTTTATACT [XGTACX_site3485]” is lower in “gcPBM binding intensity (ln)” value: 6.54 for the first, 6.33 for the second.

Going from “TATATATATATATATACACACACACCCATATATATA [CACACA_site8812]” to “ACATAAATAAATTAATGTACATATATATTTGTATAT [XGTACX_site3160]”, the “gcPBM binding intensity (ln)” value falls from 9.4 to 6.32.

Going from “TGCATTTATATCTTCACACATATATATATATATATA [CACACA_site4516]” to “ATATGTATATATACATGTACATATTTTTCCTTTCTT [XGTACX_site149]”, the “gcPBM binding intensity (ln)” value falls from 9.51 to 6.3.

Going from “ATTAAAAATTCAATTGCACACGCACATATTTTAATA [CACACA_site8618]” to “ATGTAATAAAATAATTGTACAATGTAACTAATTTTT [XGTACX_site2871]”, the “gcPBM binding intensity (ln)” value falls from 9.92 to 6.32.

Going from “TTGGGTGCATATATTTGTACACATTATTTCTATTTT [XGTACX_site3688]” to “TGTTGTTACAGATATACACACATATATATATTATAT [CACACA_site5342]”, the “gcPBM binding intensity (ln)” value falls from 10.2 to 6.89.

First: TAAATTATAACGTGCACACATATTTAAAATGAAATG [CACACA_site2820]
Second: ATAAACATGGAAATGTATTAAAAGCAAGTATATAAA [XGTACX_negctrl_site516]
The “gcPBM binding intensity (ln)” value of the first is higher: 10 for the first, 6.66 for the second.

Going from “AAAAAAAATTTCTTCACACATAAATAAATAAATAAA [CACACA_site4841]” to “TATAAATAAAAACACACACACATATATATATATATA [CACACA_site2319]”, the “gcPBM binding intensity (ln)” value rises from 6.39 to 9.32.

Compared with “CCATTTTAAATATGCACACAGATGCACTAACCCATT [CACACA_site1883]”, “ACTACTCCATTAAGTAGTACACAAAAAAAAAAAATA [XGTACX_site7031]” is lower in “gcPBM binding intensity (ln)” value: 9.9 for the first, 6.31 for the second.

Compared with “TTACAAATGTTTTACACACACATAATTGTATCAATT [CACACA_site6147]”, “TAATAAAACATATATACACACATTATAAATACATAT [CACACA_site5014]” is lower in “gcPBM binding intensity (ln)” value: 6.73 for the first, 6.61 for the second.

Compared with “TAAAAAATAAAAAAAGCACACACATATATATATATA [CACACA_site8567]”, “AAAATAAGAAATTGAAAAATTGAAAACAAAATTAAA [CACACA_negctrl_site1285]” is lower in “gcPBM binding intensity (ln)” value: 9.24 for the first, 6.15 for the second.

First: GTTTTTTTATTTCATCGTACAAAAAAGAAGGCTTTA [XGTACX_site5291]
Second: TAAATATGTATTCATACATGCACATATATATATATA [TGCATGCA_site584]
The “gcPBM binding intensity (ln)” value of the first is lower: 6.37 for the first, 9.45 for the second.

Compared with “TTATATATTTATTTATGTACATATTTTTTTATTATA [XGTACX_site6115]”, “TACATGATATATCACACACACATATAAATATATATA [CACACA_site2831]” is higher in “gcPBM binding intensity (ln)” value: 6.75 for the first, 7.35 for the second.

Compared with “TTCACAAAATATTATTGTACATTAAAATATTTATAT [XGTACX_site2535]”, “TATAAAACGGATGAACAACAAATCATATGGCACAAA [TGCATGCA_negctrl_site608]” is higher in “gcPBM binding intensity (ln)” value: 6.25 for the first, 7.15 for the second.

Going from “GAAAATTTCTTATTTTGTACACACAATAAATATTCA [XGTACX_site3267]” to “TTGGGGTATCTTCCTATGCACACTTGTTATGTACTA [CACACA_site831]”, the “gcPBM binding intensity (ln)” value rises from 6.31 to 9.24.

Compared with “ATTATAGACACGCGCACACACAACAAAAAAAAAAAA [CACACA_site9180]”, “ATACTTTTAAATTGATGTACTTTATTTATAAGGTGA [XGTACX_site6746]” is lower in “gcPBM binding intensity (ln)” value: 6.96 for the first, 6.1 for the second.

First: TTGATTACTAGAAATGCACACACTGATAAAATAAGG [CACACA_site4134]
Second: TTGCTCACAAGAAGCACACAAAAAAAGAAAAAAAAA [CACACA_site4047]
The “gcPBM binding intensity (ln)” value of the first is higher: 9.34 for the first, 6.2 for the second.
